Values quoted from earlier work as cited in publication PMC4680881 (Scientific Reports, 2015).

Conditions: cited from earlier work
In the case of COc1ccc(/C=C/c2cc(=O)c3cc(I)ccc3o2)cc1OC [SC-(OMe)2, (E)-6-Iodo-2-(3,4-dimethoxystyryl) chromone], the “log P” value is listed as 2.14.
For CNc1ccc(/C=C/c2cc(=O)c3cc(I)ccc3o2)cc1 [SC-NHMe, (E)-6-Iodo-2-(4-(methylamino)styryl)-chromone], the “log P” value is given as 2.15.
In the case of COc1ccc(/C=C/c2cc(=O)c3cc(I)ccc3o2)cc1 [SC-OMe, (E)-6-Iodo-2-(4-methoxystyryl) chromone], the “log P” value is given as 2.15.
